The campaign covered roughly 52,000 compounds. About 4,300 (8.3%) were called active. Cut-off read from the data, not from the text of the source: active = survival mostly below about 52% (no sharp cut-off); inactive = mostly above about 56%. Some of the results follow.
system: DeltatarO mutant; assay: S. aureus survival, RN4220 and DeltatarO strains – OD600, teichoic acid synthesis inhibitors, primary screen (AID 463173); conditions: S. aureus RN4220 wild type/DeltatarO growth, OD600, 18 h, stronger effect = lower value, screened at 18.75 µg/mL (by protocol)

Row | Compound | survival
1 | Cc1nn(-c2ccc(N3CCOCC3)nn2)c(C)c1CCC(=O)NCc1ccc(F)cc1 | inactive: 107%
2 | Cc1cccc(NC(=O)c2sc3nc(N4CCOCC4)c4c(c3c2N)CC(C)(C)OC4)c1 | inactive: 91%
3 | COc1ccc(NC(=O)Cn2ncc3c2-c2ccccc2OC3)cc1Cl | inactive: 59%
4 | O=C(CSc1nc2c([nH]c3ccccc32)c(=O)n1-c1ccccc1)Nc1ccc2c(c1)OCCO2 | inactive: 94%
5 | COc1ccccc1C(=O)Nc1ccc(OCc2cc(=O)n3ccsc3n2)cc1 | inactive: 114%
6 | CCN(CCCNC(=O)c1cc2c(Cl)nc3ccccc3c2s1)Cc1ccccc1 | inactive: 94%
7 | Cc1ccc(C)c2sc(N3CCN(C(=O)C(C)(C)C)CC3)nc12 | inactive: 88%
8 | CCOc1ccc(CCNC(=O)c2ccc(-n3c(C)cc4c3CCC(C)C4)cc2)cc1OCC (stereo not drawn) | inactive: 82%
9 | CC1=C(C(=O)Nc2ccc(C)cc2Cl)C2(CCCCCC2)OC1=O | inactive: 89%
10 | CCN(CC)c1sc(S(=O)(=O)c2ccccc2)nc1S(=O)(=O)c1ccc(C)cc1 | inactive: 67%
11 | CCC(=O)c1cc2c(cc1NC(=O)c1ccccc1F)OCCO2 | inactive: 68%
12 | COc1cccc2cc(-c3nnc(Nc4c(F)cccc4F)s3)c(=O)oc12 | inactive: 95%
13 | O=C(/C=C/c1ccco1)CC1(O)C(=O)Nc2ccccc21 (stereo not drawn) | inactive: 84%
14 | CSc1ncc(C(=O)N2CCN(c3cc(Cl)ccc3C)CC2)c(C)n1 | inactive: 57%
15 | CCCN(C(=O)CCc1nc(-c2ccc(OC)cc2)no1)c1ccccc1F | active: 3%
16 | COc1cc(-c2nc(Cn3nnc(C(=O)Nc4ccc(C)cc4C)c3C)c(C)o2)cc(OC)c1OC | inactive: 61%
17 | Cc1oc(-c2ccccc2F)nc1CS(=O)(=O)CC(=O)NCCc1ccc(Cl)cc1 | inactive: 109%
18 | COc1ccc(N2CCN(c3oc(-c4ccc(COc5cccc(C)c5)o4)nc3C#N)CC2)cc1 | inactive: 102%
19 | COc1ccc(CN2CCC(C(=O)NC3CCCC3)CC2)cc1 | inactive: 100%
20 | Cc1ccc(NC(=O)CN(C)S(=O)(=O)c2ccc3[nH]c4c(c3c2)CCCC4)c(Cl)c1 | inactive: 95%
21 | COc1ccc(CC(=O)NCCc2csc3nc(-c4ccccc4F)nn23)cc1 | inactive: 61%
22 | COc1cccc(-n2c(-c3cccc(F)c3)nc3c(cnn3-c3ccc(C)cc3)c2=O)c1 | inactive: 76%

Row | Compound | survival
23 | Cc1c(-c2ccc(Cl)cc2)c(=O)oc2ccc(OC(=O)N3CCOCC3)cc12 | inactive: 87%
24 | COc1ccccc1CNC(=O)CC(c1ccc(OC)c(OC)c1)N1Cc2ccccc2C1=O (stereo not drawn) | inactive: 83%
25 | CCc1cnc2c(c1SCC(=O)c1ccc(OC)cc1)c(=O)n(C)c(=O)n2C | inactive: 72%
26 | Cc1ccccc1CN1C(=O)c2ccccc2Sc2ccc(C(=O)NC3CCCC3)cc21 | inactive: 102%
27 | O=S(=O)(NCc1ccc(Cl)cc1)c1ccc(-c2cnc(C3CC3)o2)cc1 | inactive: 85%
28 | COc1ccc(OC)c(/C=C/C(=O)Nc2ccc(C(=O)OCCC(C)C)cc2)c1 | active: 33%
29 | COCCn1nnnc1C(c1cc2c(C)ccc(C)c2[nH]c1=O)N1CCCc2ccccc21 (stereo not drawn) | inactive: 99%
30 | Cc1ccc(Cl)cc1-n1ncc2c(N3CCCCCC3)ncnc21 | inactive: 108%
31 | CCCCN(CCCC)C(=O)C1CCN(S(=O)(=O)c2cccc3nsnc23)CC1 | inactive: 116%
32 | CCN(CC)CCNC(=O)Nc1ccc2c(c1)N(Cc1ccccc1)C(=O)c1ccccc1S2 | inactive: 131%
33 | CCOC(=O)c1cn(CC2CC2)c2cc(F)c(F)cc2c1=O | inactive: 101%
34 | COc1ccc(N2CC(NC(=O)c3ccc(S(=O)(=O)N4CCOCC4)cc3)CC2=O)cc1OC (stereo not drawn) | inactive: 67%
35 | CCCCOc1cccc(C(=O)N(Cc2cccs2)c2ccc(OC)cc2)c1 | inactive: 75%
36 | CCCCNC(=O)C1CCC(CNS(=O)(=O)c2ccc(Cl)cc2)CC1 (stereo not drawn) | inactive: 91%
37 | CCc1ccc(S(=O)(=O)N(C(=O)Oc2ccccc2)c2ccc3oc(C)c(C(=O)OC)c3c2)cc1 | inactive: 63%
38 | CCCCn1c(SCC(=O)NCc2ccco2)nc2ccccc2c1=O | inactive: 90%
39 | CC(C)(C)c1ccc(-c2nc(SCC(=O)Nc3ccc(Cl)cc3)[nH]c(=O)c2C#N)cc1 | active: -2%
40 | CC(=O)NCCn1c(SCC(=O)Nc2ccc(C)cc2)nc2ccccc2c1=O | inactive: 92%
41 | CC(C)N(Cc1ccc(C(=O)O)o1)C(C)C | inactive: 83%
42 | N=c1n(CCN2CCCCC2)c2ccccc2n1CC(=O)c1ccc(Br)s1 | inactive: 114%
43 | COc1ccc(NC(=O)c2cc(CN3CCCC3)on2)cc1Cl | inactive: 96%
44 | Cc1ccc(C(=O)Nc2nnc(S(=O)(=O)N3CCc4ccccc43)s2)cc1 | active: 26%

Row | Compound | survival
45 | Cc1ccccc1C(=O)Oc1c(Sc2ccccc2)c(C)nn1C(C)(C)C | active: 21%
46 | O=C(NCc1ccc(F)cc1)c1cc(-c2ccc(Cl)cc2)n[nH]1 | inactive: 85%
47 | O=C(Nc1cccnc1)c1cc(-c2cccc(Cl)c2)on1 | inactive: 115%
48 | CN(C)c1ccc(-c2nc3ccccc3s2)cc1 | inactive: 78%
49 | CCC(C)NC(=O)CCSc1nc(-c2ccc(OC)cc2)cc(C(F)(F)F)n1 (stereo not drawn) | inactive: 122%
50 | CCc1ccc(S(=O)(=O)c2nnn3c2nc(Nc2ccc(F)cc2)c2cc(Cl)ccc23)cc1 | inactive: 85%
51 | O=C(O)c1cccc(Nc2ncnc3scc(-c4ccccc4)c23)c1 | inactive: 56%
52 | O=C(Nc1cccc(Br)c1)N1CCC(CN2CCCCCC2)CC1 | inactive: 89%
53 | COc1cccc(CNC(=O)CN(c2ccc(C(C)C)cc2)S(=O)(=O)c2c(C)noc2C)c1 | inactive: 55%
54 | Cc1cc(C)cc(Oc2c(C(F)(F)F)oc3cc(OCC(=O)NC4CCCCC4)ccc3c2=O)c1 | inactive: 110%
55 | O=C(NN1C(=O)c2ccccc2C1=O)C1CC2CCC1C2 (stereo not drawn) | inactive: 74%
56 | CCOC(=O)c1cc(-c2ccccc2)n(-c2cccc(C(=O)Nc3cc(OC)cc(OC)c3)c2)c1C | inactive: 81%
57 | CCOC(=O)c1sc(NC(=O)c2cc3nc(-c4ccccc4)cc(C(F)(F)F)n3n2)c(C(=O)OCC)c1C | inactive: 60%
58 | Cn1c(=O)oc2cc(S(=O)(=O)N3CCC(C(=O)Nc4ccc(F)c(Cl)c4)CC3)ccc21 | inactive: 68%
59 | CCOc1ccc(NC(=O)c2cnc(Nc3ccccc3OC)c3ccccc23)cc1 | inactive: 50%
60 | COc1ccc(CCNC(=O)Cn2ncc3c(=O)oc4ccccc4c32)c(OC)c1 | inactive: 89%
61 | CCOc1ccc(NC(=O)c2oc3ccccc3c2NC(=O)c2cc(C)cc(C)c2)cc1 | inactive: 82%
62 | COc1ccc(CC(=O)NCc2ccc3c(c2)CCN3C(=O)c2ccc(Cl)cc2)cc1 | inactive: 62%
63 | CN1C(=O)/C(=C/C=C2/CCCN2C)N(C)C1=S | inactive: 91%
64 | CCc1ccc2oc(-c3cc(NC(=O)c4cccnc4)cc(C)c3O)nc2c1 | inactive: 65%
65 | CCOc1ccc(CCNC(=O)CCSCc2ccc(Cl)cc2)cc1OCC | inactive: 92%
66 | CCC(=O)N1CCc2cc(Br)cc(S(=O)(=O)N3CCCC(C(=O)Nc4cccc(F)c4)C3)c21 (stereo not drawn) | inactive: 76%

Row | Compound | survival
67 | Cc1cccc(Cc2c(C)nc3nc(SCC(=O)NCc4ccccc4)nn3c2C)c1 | active: 40%
68 | COc1ccccc1N1CCN(c2ncnc3c2cnn3-c2cccc(Cl)c2)CC1 | active: -2%
69 | CCN(Cc1ccccc1)S(=O)(=O)c1cc(C(=O)Nc2cc(Cl)cc(Cl)c2)ccc1F | inactive: 78%
70 | COc1ccc(-c2[nH]c(-c3cccc(OC)c3)nc2SCC(=O)NC2CCCC2)cc1 | inactive: 119%
71 | O=S(=O)(NCC(c1cccs1)S(=O)(=O)c1ccccc1)c1ccc(F)c(C(F)(F)F)c1 (stereo not drawn) | inactive: 92%
72 | COc1ccc(-c2cn3nc(N4CCCC(C(=O)Nc5cc(C)cc(C)c5)C4)sc3n2)cc1 (stereo not drawn) | inactive: 75%
73 | Cc1cc(C)c(S(=O)(=O)Nc2ccc(-c3ccc(N4CCCCCC4)nn3)cc2)c(C)c1 | inactive: 84%
74 | CCCc1cc(C(=O)Nc2c(C)nn(Cc3c(Cl)cccc3Cl)c2C)no1 | inactive: 60%
75 | Cn1cnnc1SCC(=O)Nc1ccc(C#N)cc1 | inactive: 56%
76 | COC(=O)c1ccc(OCC2c3cc(OC)c(OC)cc3CCN2C(=O)Cc2ccccc2)cc1 (stereo not drawn) | inactive: 93%
77 | CN(CC(=O)NCc1ccccc1)S(=O)(=O)c1ccc2[nH]c3c(c2c1)CCCC3 | inactive: 96%
78 | CC(=O)Nc1ccc2nc(SCCOc3cc(C)cc(C)c3)sc2c1 | inactive: 70%
79 | COc1ccc(CCN2C(=O)NC(NS(=O)(=O)c3ccc(NC(C)=O)cc3)(C(F)(F)F)C2=O)cc1OC (stereo not drawn) | inactive: 80%
80 | COc1cc(NC(=O)c2c(C)oc3c2C2=NCCN2C=N3)cc(OC)c1OC | inactive: 81%
81 | CC(=O)N1c2ccc(S(=O)(=O)NCC3CCC(C(=O)Nc4cc(C)ccc4C)CC3)cc2CC1C (stereo not drawn) | inactive: 102%
82 | COc1ccc(OCC(=O)NCc2ccc3c(c2)CCN3C(=O)c2ccc(F)cc2)cc1 | inactive: 119%
83 | CCN(CC)S(=O)(=O)c1ccc(C(=O)N2CC(=O)Nc3ccc(F)cc3C2c2ccccc2)cc1 (stereo not drawn) | inactive: 74%
84 | O=C(C1CCN(S(=O)(=O)c2ccc(Br)s2)CC1)N1CCN(c2ccccc2)CC1 | inactive: 86%
85 | CC(C)(C)OC(=O)N1CCC(c2c(C(=O)NCCc3ccccc3)cnn2-c2ccc(F)cc2)CC1 | inactive: 88%
86 | Cc1ccc(-n2c(=O)c3c(cnn3C)n(Cc3ccccc3F)c2=O)cc1 | inactive: 89%
87 | Cc1ccccc1-c1noc(-c2ccc(N3CCOCC3)c([N+](=O)[O-])c2)n1 | inactive: 62%
88 | Cn1c2ccccc2c2cnn(CC(=O)Nc3ccccc3C(F)(F)F)c(=O)c21 | inactive: 80%
